Measurements taken from PubChem BioAssay AID2101 (National Center for Advancing Translational Sciences (NCATS), 2009).
Several values for one entry are separate records, joined by “and”; a condition that tells them apart may be missing. Identical values can stand only once. The campaign covered roughly 330,000 compounds. About 300 (0.091%) were called active. The shares of active, inactive and inconclusive entries below differ from those in the screen. The call rests on the fitted dose curve; in most records, active means well fitted inhibition curve with a large enough effect; inconclusive means small, poorly fitted or top-dose-only effect, or effect the other way, or another doubt; inactive means no such curve, though single readings can be large or run the other way. Potencies of inconclusive entries are left out as doubtful fits.

biological target: Lysosomal acid glucosylceramidase (Homo sapiens) (UniProt P04062); assay: qHTS Assay for Inhibitors and Activators of N370S glucocerebrosidase as a Potential Chaperone Treatment of Gaucher Disease; conditions: N370S GC spleen homogenate, 4MU-glucoside fluorescence; activity change, negative = inhibition: at 59.4 µM (top of the series) unless noted;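 on activity change, negative = inhibition: 0% = full enzyme activity and -100% = no enzyme basal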
Potency means the concentration at half of the fitted maximal effect.

SMILES	Potency	activity change, negative = inhibition
COc1ccc(-c2csc(Nc3cccc(C)n3)n2)cc1C	inconclusive [inhibitor, single point]	
CCOc1ccccc1NC(=O)Nc1cnccn1	inconclusive [activator, full curve, poor fit]	
CCOCC	inactive	
Cc1nc(Nc2ccc(Cl)cc2)c2oc3ccccc3c2n1	inconclusive [activator, single point]	
O=C(NC(=S)Nc1nc(-c2cccc([N+](=O)[O-])c2)cs1)c1cc(Cl)ccc1Cl	inactive	
CC(=O)OCCNc1nc(-c2ccccc2)nc2ccccc12	inconclusive [inhibitor, partial curve]	
CCC12OC(=N)C(C#N)(C1C)C(C#N)(C#N)C(c1ccccc1)O2 (stereo not drawn)	inconclusive [activator, single point]	
CC1CCN(S(=O)(=O)c2ccc(Oc3ccc([N+](=O)[O-])cc3)cc2)CC1	inactive	
COC(=O)C1=C(C)N(Cc2ccccc2)C2=C(C(C)=O)C(c3ccccc3)[C@@](O)(C(=O)OC)C(=O)N2C1c1ccccc1 (stereo partly drawn)		inactive: -4.32% [at 12.8 µM] and inactive: 12.6% [at 12.8 µM]
COc1ccc(OC)c(Nc2nc(NCc3ccco3)c3ccccc3n2)c1	inconclusive [inhibitor, partial curve]	
CCCCc1cc(=O)oc2c(CN3CCN(C)CC3)c(O)ccc12	inconclusive [activator, partial curve]	
C=CCn1c(COc2ccc(Cl)cc2)nnc1SCc1ccc(C#N)cc1	inactive	
COc1ccc(C2/C=C\CN(Cc3ccccc3)C(C)C(=O)N2Cc2ccc(F)cc2)cc1 (stereo not drawn)	inactive	
O=C(CNC(=S)N(Cc1ccccc1)Cc1cccnc1)NC1CCCC1	inconclusive [inhibitor, single point]	
CCC(=O)Nc1cccc(C2=NOC3(C2)C[C@@H](C(N)=O)N(C(=O)COc2ccc(Cl)cc2)C3)c1 (stereo partly drawn)	inactive	
O=C(c1ccco1)N(CCC(c1ccccc1)c1ccco1)Cc1ccc(F)cc1 (stereo not drawn)	inconclusive [activator, partial curve]	
Cc1cc(=O)oc2c(CN3CCC(C)CC3)c(O)c(Cl)cc12	inconclusive [activator, partial curve]	
COC1(OC)N=C(N)C2(C#N)C(c3ccc4c(c3)OCO4)C12C#N (stereo not drawn)	inconclusive [inhibitor, full curve, poor fit]	
CCOC(=O)c1sc(NC(=O)CSc2n[nH]c(-c3ccccc3)n2)c(C#N)c1C	inconclusive [activator, partial curve]	
O=c1[nH][nH]c(-c2ccccc2O)c1C(C[N+](=O)[O-])c1ccc(Br)cc1 (stereo not drawn)	inconclusive [inhibitor, single point]	
O=C(NCc1ccc2c(c1)OCO2)O[C@@H]1C(=O)c2cc(Br)ccc2O[C@H]1c1ccc2c(c1)OCO2	inactive	
Cc1ccc2oc(=O)c(/C=C(\O)c3ccco3)nc2c1	inactive	
COc1ccc(C)cc1NC(=O)C1CCCN(S(=O)(=O)c2ccc3[nH]c(=O)ccc3c2)C1 (stereo not drawn)	inconclusive [inhibitor, single point]	

SMILES	Potency	activity change, negative = inhibition
Cc1c(-c2ccccc2)c(=O)oc2cc(O)ccc12	inconclusive [activator, partial curve]	
O=C(c1cc(-c2cccs2)nc2ccccc12)N1CCN(CCO)CC1	inconclusive [activator, single point]	
CC(C)N1C(=O)C(Cc2nc3ccccc3c(=O)n2-c2ccccc2)c2ccccc21 (stereo not drawn)	inconclusive [activator, partial curve, poor fit]	
C/C(CS(=O)(=O)c1ccccc1)=N\O	inactive	
COc1cc(/C=C2\SC(=O)NC2=O)ccc1Oc1ccc([N+](=O)[O-])cn1	inconclusive [inhibitor, partial curve]	
C=CCc1c(OC)ccc2c1c(S(=O)(=O)c1ccc(C)cc1)cn2COC	inconclusive [activator, partial curve]	
CCCCNC(=O)COc1ccccc1[N+](=O)[O-]	inconclusive [activator, partial curve, poor fit]	
CC(=O)N(O)C/C=C/c1cccc(Oc2ccccc2)c1	inactive	
Cc1nn(Cc2ccccc2Cl)c2sc(C(=O)Nc3ccccc3N3CCOCC3)cc12	inconclusive [activator, partial curve, poor fit]	
CCOC(=O)c1cc2c(=O)n3ccccc3nc2n(CC2CCCO2)c1=NC(C)=O (stereo not drawn)	inconclusive [activator, partial curve]	
CC1CCCCN1c1ccc(N)cc1C(N)=O (stereo not drawn)	inactive	
CN(C)S(=O)(=O)c1ccc(C(=O)NCc2nnc(SCC(=O)c3ccccc3)o2)cc1	inactive	
CCC(CC)c1nnc(NC(=O)c2cc([N+](=O)[O-])ccc2N2CCCCC2)s1	inconclusive [inhibitor, single point]	
O=C(c1cc(-c2ccc(Cl)c(Cl)c2)on1)N1CCCCC1	inactive	
COc1ccc(C2CC(c3ccccc3)=NN2c2ccc(S(N)(=O)=O)cc2)cc1OC (stereo not drawn)	inconclusive [activator, single point]	
CCN1CCCc2cc(CN(CCN3CCOCC3)C(=S)Nc3cccc(Cl)c3)ccc21	inconclusive [inhibitor, partial curve]	
O=C(Nc1cccc(Br)c1)c1ccc(CN2CCc3ccccc3C2)cc1	inconclusive [inhibitor, partial curve]	
CCOC(=O)c1c(NC(=O)CSc2nnnn2CC)sc(C)c1C	inconclusive [activator, single point]	
O=c1/c(=C/c2ccc(O)c([N+](=O)[O-])c2)sc2nc3ccccc3n12	inactive	
O=c1c(-c2cc(F)cc(F)c2)nc2cnc(N3CCNCC3)nc2n1Cc1ccc(F)cc1	inactive	
C=CCCOc1ccccc1C(N)=O	inconclusive [activator, single point]	
O=C1CCCC/C1=C\Nc1ccc(O)cc1	inconclusive [inhibitor, single point]	
COC(=O)c1ccccc1NC(=O)CSc1nncn1-c1ccccn1	inconclusive [activator, partial curve, poor fit]	

SMILES	Potency	activity change, negative = inhibition
CCCn1c(SCC(=O)N2CCN(c3ccccc3)CC2)nc2ccccc2c1=O	inconclusive [activator, partial curve]	
CCOC(=O)C(=O)Nc1cc(C)on1	inactive	
Cc1ccc2nc(-c3ccc(SCC(=O)O)nc3)[nH]c2c1	inactive	
Cc1cccc2nc(-c3cccnc3)c(NCCC(C)C)n12	inconclusive [inhibitor, single point]	
COC1=C(Nc2ccc(O)cc2)C(=O)c2ccccc2C1=O	inconclusive [inhibitor, single point]	
CC1CCC/C(=N\NC(=O)Nc2ccccc2)C1 (stereo not drawn)		inconclusive: 26.1% [activator]
COc1ccc(-c2cc3nc(CCl)[nH]c(=O)c3s2)cc1	inconclusive [activator, single point]	
CC(=O)Nc1nc2n(n1)C(c1ccccc1)C=C(c1ccccc1)N2 (stereo not drawn)	inactive	
CCc1ccc(Oc2coc3cc(O)ccc3c2=O)cc1	inconclusive [activator, single point]	
CCc1ccc(S(=O)(=O)/N=C2\C=C(Nc3ccc(C(=O)O)cc3)C(=O)c3ccccc32)cc1	inconclusive [activator, partial curve]	
CN(c1ccc(OCc2nnc(-c3ccccc3)o2)cc1)S(=O)(=O)c1ccccc1		inconclusive: 30.3% [activator]
O=C1C2=CC[C@H]3C(=O)N(C4CCCCC4)C(=O)[C@@H]3[C@@H]2[C@H](O)[C@@H]2O[C@H]12		inactive: 0.53% [at 12.8 µM]
CCOC(=O)C1(Cc2ccccc2C(F)(F)F)CCN(CC2CC2)CC1	inconclusive [inhibitor, single point]	
Cc1ccc(C)c(N2CCN(C(=O)c3ccc4c(=O)n5c(nc4c3)CCCCC5)CC2)c1	inconclusive [activator, single point]	
O=C(COC(=O)CCCCCN=C1NS(=O)(=O)c2ccccc21)Nc1ccc(Cl)c(Cl)c1	inconclusive [inhibitor, partial curve]	
O=C(CSc1ccc(-c2nc3ccccc3[nH]2)cn1)Nc1ccc2c(c1)OCCO2	inactive	
CCc1ccc(NC(=O)CSc2nc3ccccc3nc2N2CCCCC2)cc1	inconclusive [activator, single point]	
CC1(C)CC(=O)C2=C(C1)Nc1cc3c(cc1C2c1ccc2c(c1)OCO2)OCO3 (stereo not drawn)	inconclusive [activator, partial curve]	
C=CCNc1oc(-c2cccc3ccccc23)nc1C#N	inconclusive [activator, single point]	
COc1cc2c(c(O)c1OC)-c1c(cc(OC)c(OC)c1OC)C[C@@H](C)[C@@H](C)C2	inactive	
CCC(C)n1c(-c2cccs2)nc2nc3ccccc3nc21 (stereo not drawn)	inconclusive [activator, partial curve]	
CCc1cc(=O)oc2c(C)c(OCC(=O)NC3CC(C)(C)NC(C)(C)C3)ccc12	inconclusive [inhibitor, full curve, poor fit]	
